# Some entries of the source have several records that differ or are many. They are shown here; other results are not. The source may hold further records. The values listed for one entry are repeated measurements across runs, samples, wells, individuals or studies. Results filed as inconclusive are left out. Rule for the calls, unless noted: active = hit-call score of the fitted dose curve at least 0.9, where 1 is the maximum; inactive = score below 0.9. Where a structure was tested more than once in an assay, its records may differ in their call.
# Assays:
# [1] = APR_HepG2_CellLoss_24hr: Apredica 24-hour HepG2 Assay for Cell Loss (AID 2282908); settings: high-content imaging;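 note: fit in both directions so a hit may be cell loss or gain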
# Procedure, shortened: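 10-pt dose, 0.39–200 uM, n=2/plate; DMSO 0.5% v/v final as negative control. Fix 3.7% formaldehyde 30 min RT, permeabilize 0.5% Triton X-100, stain Hoechst 33342 2 ug/mL, image 20x. Nuclear count, bidirectional fit vs DMSO.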
# [2] = biological target: Glucocorticoid receptor (Homo sapiens) (UniProt P04150); assay: NVS_NR_hGR: NovaScreen (NVS) Nuclear Receptor Binding Assay for human Glucocorticoid Receptor (GR) (AID 2283363; active = hit-call score of the fitted dose curve at least 0.9, where 1 is the maximum;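 note: activity is loss of specific radioligand binding signal relative to DMSO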)
# Sequence of UniProt P04150 (P04150 whole entry, looked up): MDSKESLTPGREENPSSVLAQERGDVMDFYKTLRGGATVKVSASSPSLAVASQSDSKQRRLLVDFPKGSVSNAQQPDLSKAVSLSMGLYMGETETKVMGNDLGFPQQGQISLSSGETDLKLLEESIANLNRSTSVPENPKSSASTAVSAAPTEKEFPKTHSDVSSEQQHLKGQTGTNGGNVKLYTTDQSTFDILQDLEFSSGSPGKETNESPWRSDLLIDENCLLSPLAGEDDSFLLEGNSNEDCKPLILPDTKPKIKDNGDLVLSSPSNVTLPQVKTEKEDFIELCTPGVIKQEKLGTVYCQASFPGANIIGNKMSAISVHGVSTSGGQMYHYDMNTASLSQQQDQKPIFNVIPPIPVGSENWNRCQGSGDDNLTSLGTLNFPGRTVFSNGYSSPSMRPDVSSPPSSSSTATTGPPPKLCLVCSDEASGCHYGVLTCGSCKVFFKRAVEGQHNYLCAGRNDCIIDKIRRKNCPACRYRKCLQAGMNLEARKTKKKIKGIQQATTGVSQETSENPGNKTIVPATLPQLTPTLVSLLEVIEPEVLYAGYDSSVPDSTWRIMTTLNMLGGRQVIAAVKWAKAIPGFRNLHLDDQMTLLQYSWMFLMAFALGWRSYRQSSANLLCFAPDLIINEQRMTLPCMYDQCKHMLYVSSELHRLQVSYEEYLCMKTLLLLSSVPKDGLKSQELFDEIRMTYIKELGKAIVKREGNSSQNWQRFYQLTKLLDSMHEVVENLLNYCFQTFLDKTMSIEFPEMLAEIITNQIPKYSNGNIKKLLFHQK
# Procedure, shortened: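 Competitive displacement of a labelled ligand was measured on cell-free receptor preparations after 16 h exposure. Initial testing used 25 uM in duplicate with plate controls; confirmed actives went into concentration series.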
# [3] = ATG_VDRE_CIS: Attagene CIS-FACTORIAL HepG2 Assay for human Vitamin D Receptor Element (VDRE) (AID 2282968); settings: HepG2 VDRE cis-reporter transcription, actives raise or lower the signal
# Procedure, shortened: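 Reporter mRNA induction, quantified by capillary electrophoresis of fluorescently labelled RT-PCR products, was read 24 h after dosing HepG2 cells carrying transiently transfected cis-regulated reporter units; gain or loss relative to DMSO.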
# [4] = APR_HepG2_CellLoss_72hr: Apredica 72-hour HepG2 Assay for Cell Loss (AID 2282915); settings: high-content imaging
# Procedure, shortened: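 Cell number comes from Hoechst 33342-labelled nuclei, imaged at 20x after 3.7% formaldehyde fixation. Dosing was 0.39–200 uM, ten concentrations in duplicate, 0.5% DMSO final, for 72 h. Bidirectional fit relative to DMSO baseline.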
# [5] = ATG_BRE_CIS: Attagene CIS-FACTORIAL HepG2 Assay for human Bone Morphogenetic Protein (BMP) Response Element (BRE) (AID 2282933); settings: HepG2 BMP response element reporter, Attagene transcription factor profiling; actives raise or lower the signal
# Procedure, shortened: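 A HepG2 multiplex reporter system measured inducible reporter mRNA 24 h post-dosing. Detection: RT-PCR, 6-FAM primer extension, HpaI digestion, capillary electrophoresis. Activity fitted bidirectionally relative to DMSO.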
# [6] = biological target: Retinoic acid receptor alpha (Homo sapiens) (UniProt P10276); assay: ATG_DR5_RAR_CIS: Attagene CIS-FACTORIAL HepG2 Assay for human Retinoic Acid Receptor Alpha (RARE), DR5 submotif (AID 2282934); settings: HepG2 Attagene cis-factorial RARE DR5 reporter, mRNA; actives raise or lower the signal;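 note: reporter responds to endogenous RAR alpha beta and gamma in HepG2 not RARA alone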
# Sequence of UniProt P10276 (P10276 whole entry, looked up): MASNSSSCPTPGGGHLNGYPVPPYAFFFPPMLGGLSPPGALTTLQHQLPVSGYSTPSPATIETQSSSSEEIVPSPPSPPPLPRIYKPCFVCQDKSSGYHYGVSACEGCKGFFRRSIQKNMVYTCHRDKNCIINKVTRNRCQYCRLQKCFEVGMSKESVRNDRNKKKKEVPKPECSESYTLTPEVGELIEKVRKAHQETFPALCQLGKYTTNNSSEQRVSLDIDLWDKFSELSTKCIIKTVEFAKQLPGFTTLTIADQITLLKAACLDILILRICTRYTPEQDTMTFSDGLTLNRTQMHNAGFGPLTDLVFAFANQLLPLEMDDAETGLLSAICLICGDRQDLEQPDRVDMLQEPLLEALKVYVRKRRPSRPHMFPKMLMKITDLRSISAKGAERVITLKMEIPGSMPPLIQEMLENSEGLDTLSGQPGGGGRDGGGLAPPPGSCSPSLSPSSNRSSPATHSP
# [7] = ATG_PBREM_CIS: Attagene CIS-FACTORIAL HepG2 Assay for human Phenobarbital-responsive Enhancer Module (PBREM) (AID 2282955); settings: HepG2 PBREM cis-reporter, Attagene multiplexed transcription; actives raise or lower the signal
# Procedure, shortened: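 HepG2 cells transiently transfected with multiple cis-regulated reporter units measure endogenous transcription factor activity; 24 h compound exposure. Reporter mRNA quantified by RT-PCR, fluorescent labelling, HpaI digestion and capillary electrophoresis; bidirectional fit versus DMSO.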
# [8] = ATG_NRF2_ARE_CIS: Attagene CIS-FACTORIAL HepG2 Assay for human Nuclear Factor Erythroid 2 Related Factor 2 (NFR2) response to Antioxidant Response Elements (ARE) (AID 2282992); settings: HepG2 Attagene ARE/NRF2 reporter, transcription factor activity; actives raise or lower the signal;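 note: reporter mRNA level measured by RT-PCR and capillary electrophoresis fluorescence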
# Procedure, shortened: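 Transient MRTU transfection of HepG2; 24 h compound exposure; TriZol RNA, RT with oligo(dT), PCR, 6-FAM primer extension, HpaI cut, CE. Bidirectional fit vs DMSO.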
# [9] = read-out: E-selectin (Homo sapiens) (UniProt P16581); assay: BSK_3C_Eselectin: BioMAP Diversity Plus: 3C Assay for Eselectin Biomarker Activity (AID 2283015); settings: actives raise or lower the signal; primary human endothelial cells (HUVEC)
# Sequence of UniProt P16581 (P16581 whole entry, looked up): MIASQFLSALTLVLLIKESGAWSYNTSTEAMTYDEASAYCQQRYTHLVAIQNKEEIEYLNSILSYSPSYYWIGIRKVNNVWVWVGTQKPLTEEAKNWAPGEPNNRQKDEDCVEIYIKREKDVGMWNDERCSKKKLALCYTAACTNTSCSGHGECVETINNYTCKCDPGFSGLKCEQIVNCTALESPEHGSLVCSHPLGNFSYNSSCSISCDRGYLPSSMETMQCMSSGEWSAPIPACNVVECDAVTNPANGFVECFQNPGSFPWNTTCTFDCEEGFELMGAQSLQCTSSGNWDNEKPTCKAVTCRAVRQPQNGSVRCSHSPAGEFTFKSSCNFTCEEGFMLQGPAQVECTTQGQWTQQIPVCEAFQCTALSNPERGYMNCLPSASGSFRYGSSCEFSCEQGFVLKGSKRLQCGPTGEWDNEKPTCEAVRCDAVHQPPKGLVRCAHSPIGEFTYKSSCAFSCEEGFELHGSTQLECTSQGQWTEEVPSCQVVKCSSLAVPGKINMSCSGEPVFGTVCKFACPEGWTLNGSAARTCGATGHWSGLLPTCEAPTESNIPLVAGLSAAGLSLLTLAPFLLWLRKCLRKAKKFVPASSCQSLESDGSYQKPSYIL
# Procedure, shortened: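 HUVEC, 3C stimulation; compound exposure 24 h; E-selectin by ELISA; gain- or loss-of-signal fitted bidirectionally vs DMSO baseline.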
# [10] = read-out: Interleukin-8 (IL8), CXCL8 (gene 3576); assay: BSK_3C_IL8: BioMAP Diversity Plus: 3C Assay for Interleukin-8 (IL8) Biomarker Activity (AID 2283020); settings: actives raise or lower the signal; primary human endothelial cells (HUVEC)
# Procedure, shortened: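 ELISA read-out of IL-8 from human umbilical vein endothelium, measured 24 h after chemical dosing. Activity is expressed relative to DMSO negative control, with both increases and decreases fitted.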
# [11] = read-out: Vascular cell adhesion molecule 1 (VCAM1), VCAM1 (gene 7412); assay: BSK_4H_VCAM1: BioMAP Diversity Plus: 4H Assay for Vascular cell adhesion molecule 1 (VCAM1) Biomarker Activity (AID 2283033); settings: actives raise or lower the signal; primary human endothelial cells (HUVEC)
# Procedure, shortened: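 ELISA read-out of VCAM-1 on human umbilical vein endothelium 24 hours after chemical dosing; gain or loss of signal was fitted relative to DMSO, with sulforhodamine B staining of parallel cultures flagging overt cytotoxicity.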
# [12] = read-out: Interleukin-8 (IL8), CXCL8 (gene 3576); assay: BSK_LPS_IL8: BioMAP Diversity Plus: LPS Assay for Interleukin-8 (IL8) Biomarker Activity (AID 2283078); settings: actives raise or lower the signal; primary human HUVEC with PBMC
# Procedure, shortened: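 HUVEC + PBMC co-culture, LPS-activated; test chemicals dosed, IL-8 read by ELISA at 24 h. Bidirectional curve fit vs DMSO baseline (gain or loss of signal).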
# [13] = BSK_LPS_SRB: Viability Assessment in the BioMAP Diversity Plus: LPS Assay (AID 2283079); settings: primary human HUVEC with PBMC;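 note: total protein by sulforhodamine B absorbance as a cytotoxicity measure; measured one day after compound addition; fitted in both directions against DMSO so loss or gain of signal counts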
# Procedure, shortened: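 HUVEC + PBMC co-culture, LPS-stimulated; compound 24 h. 10% TCA fix, 0.1% SRB stain, A560. Bidirectional fit vs DMSO.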
# [14] = biological target: Cytochrome P450 2C19 (Homo sapiens) (UniProt P33261); assay: NVS_ADME_hCYP2C19: NovaScreen (NVS) CYP450-related Enzyme Activity (ADME) Assay for human CYP2C19 (AID 2283113; active = hit-call score of the fitted dose curve at least 0.9, where 1 is the maximum;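 note: potency for inhibition seen as loss of fluorescent signal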)
# Sequence of UniProt P33261 (P33261 whole entry, looked up): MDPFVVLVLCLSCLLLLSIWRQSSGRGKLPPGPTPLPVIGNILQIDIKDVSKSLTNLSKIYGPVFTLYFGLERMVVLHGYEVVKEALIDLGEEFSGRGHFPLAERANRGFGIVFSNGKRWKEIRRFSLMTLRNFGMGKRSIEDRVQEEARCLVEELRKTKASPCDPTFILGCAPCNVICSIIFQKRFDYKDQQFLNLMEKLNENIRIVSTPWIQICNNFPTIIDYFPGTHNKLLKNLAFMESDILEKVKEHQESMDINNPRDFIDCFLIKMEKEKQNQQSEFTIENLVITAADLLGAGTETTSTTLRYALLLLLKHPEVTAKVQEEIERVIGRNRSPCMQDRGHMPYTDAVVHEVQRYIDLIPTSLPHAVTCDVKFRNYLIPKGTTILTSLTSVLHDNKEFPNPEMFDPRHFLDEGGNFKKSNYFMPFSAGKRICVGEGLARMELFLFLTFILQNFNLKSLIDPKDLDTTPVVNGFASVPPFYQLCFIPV
# Procedure, shortened: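 Recombinant insect-cell-expressed enzyme, fluorescent substrate, 1 h after chemical addition, fluorescence intensity. Baseline = acetonitrile vehicle; activity scored as signal loss. Primary HTS single concentration 10 uM, duplicate; actives retested in concentration series.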
# [15] = biological target: human Peripheral-type Benzodiazepine Receptor (PBR), TSPO (gene 706) (UniProt P30536); assay: NVS_MP_hPBR: NovaScreen (NVS) Membrane Protein Assay for human Peripheral-type Benzodiazepine Receptor (PBR) (AID 2283331; active = hit-call score of the fitted dose curve at least 0.9, where 1 is the maximum;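 note: hits reduce radioligand binding relative to DMSO baseline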)
# Sequence of UniProt P30536 (P30536 whole entry, looked up): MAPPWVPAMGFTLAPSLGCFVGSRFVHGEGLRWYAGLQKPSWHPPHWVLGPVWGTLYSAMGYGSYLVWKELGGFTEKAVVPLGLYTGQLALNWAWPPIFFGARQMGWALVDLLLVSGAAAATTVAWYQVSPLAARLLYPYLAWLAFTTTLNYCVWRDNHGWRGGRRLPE
# Procedure, shortened: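 Scintillation counts of filter-bound radioligand served as read-out after 1 h chemical dosing of human colonic membrane preparations. Activity was scored as signal loss against DMSO; initial duplicates at 25 uM, confirmatory concentration series afterward.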
# [16] = test system: Sodium/Iodide Symporter (NIS), SLC5A5 (gene 6528); assay: CPHEA_Stoker_NIS_Inhibition_RAIU: CPHEA's Radioactive Iodide Uptake (RAIU) Assay for Sodium/Iodide Symporter (NIS) Inhibition, Stoker and Laws Labs (AID 2283841; active = hit-call score of the fitted dose curve at least 0.9, where 1 is the maximum)
# Procedure, shortened: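 Test chemicals, six concentrations from 0.001 to 100uM in 0.5% DMSO, were co-incubated with carrier-free 125I (final 329pM) on hNIS-HEK293T-EPA monolayers in pH 7.4 HEPES-buffered HBSS. Plates stood 2 hours at room temperature, then were washed cold and counted.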
# [17] = CPHEA_Stoker_NIS_Cytotoxicity: Cytotoxicity Assessment for CPHEA's Radioactive Iodide Uptake (RAIU) Assay for Sodium/Iodide Symporter (NIS) Inhibition, Stoker and Laws Labs (AID 2283897; active = hit-call score of the fitted dose curve at least 0.9, where 1 is the maximum;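 note: active means loss of ATP signal versus DMSO meaning cytotoxicity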)
# Procedure, shortened: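 Viability in hNIS-HEK293T-EPA cells is scored as a drop in luciferase-detected ATP following 2-hour room-temperature exposure (0.001–100uM; triplicate wells, three cell passages), with DMSO as negative control.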
structure (smiles),measurement,setting,value
CCCN(CCC)c1c([N+](=O)[O-])cc(S(N)(=O)=O)cc1[N+](=O)[O-],AC50,[1],"active: 30.8, 28.6, 52.5, 137 µM [separate samples]"
same,AC50,[2],"active: 297 nM, 1.12 µM, 933 nM, 1.2 µM [separate samples]"
CCCCOC(=O)c1ccccc1C(=O)OCCCC,AC50,[3],"active: 27.7, 56.9, 83.7, 28 µM [separate samples]"
CO/C=C(/C(=O)OC)c1ccccc1Oc1cc(Oc2ccccc2C#N)ncn1,AC50,[4],"active: 14.4, 7.82, 11.1, 28 µM [separate samples]"
same,AC50,[5],"active: 79, 69.6, 33.5, 84.5, 21.2 µM [separate samples]"
same,AC50,[6],"active: 2.09, 1.88, 2.06, 17 µM [separate samples]"
same,AC50,[7],"active: 2.18, 2.53, 1.68, 20.5 µM [separate samples]"
same,AC50,[3],"active: 1.96, 2.5, 2.84, 4.26, 1.28, 15.1 µM [separate samples]"
same,AC50,[8],"active: 13, 9.94, 1.38, 2.75, 2.67 µM [separate samples]"
same,AC50,[9],"active: 5.71, 5.6, 5.72, 26.7 µM [separate samples]"
same,AC50,[10],"active: 10.1, 8.5, 7.4, 22.9 µM [separate samples]"
same,AC50,[11],"active: 13.4, 31.8, 34, 9.63 µM [separate samples]"
same,AC50,[12],"active: 27.9 µM, 6.93 µM, 8.14 µM, 540 nM [separate samples]"
same,AC50,[13],"active: 27, 11.5, 11.9, 5.98 µM [separate samples]"
same,AC50,[14],"active: 2.86, 5.48, 4.01, 1.55 µM [separate samples]"
same,AC50,[15],"active: 5.71, 6.59, 7.14, 6.13, 2.18 µM [separate samples]"
same,AC50,[16],"active: 25.2, 14.8, 24, 50, 41.4 µM [separate samples]"
same,AC50,[17],"active: 77.6 µM, 50 µM, 418 nM, 9.92 µM, 30.8 µM, 25.6 µM, 35.5 µM [separate samples]"

# From PubChem BioAssay (EPA / NIEHS)
